Measured values as given in publication PMC5540273 (PLoS ONE, 2017).
For some of these results: Most of the strong results are listed elsewhere, so they are rarer here than in the full data. The entries are a selection whose mix differs from that of the whole data set.

Assays:
AAK1 = details: concentration: 1 μM,replicates: in singlicate; n = 1
ABL1-nonphosphorylated = details: concentration: 1 μM,replicates: in singlicate; n = 1
ABL1-phosphorylated = details: concentration: 1 μM,replicates: in singlicate; n = 1
ABL2 = details: concentration: 1 μM,replicates: in singlicate; n = 1
ACVR1B = details: concentration: 1 μM,replicates: in singlicate; n = 1
ACVR1 = details: concentration: 1 μM,replicates: in singlicate; n = 1
ACVR2A = details: concentration: 1 μM,replicates: in singlicate; n = 1
ACVR2B = details: concentration: 1 μM,replicates: in singlicate; n = 1
ACVRL1 = details: concentration: 1 μM,replicates: in singlicate; n = 1
ADCK3 = test system: T1, ADCK3; details: concentration: 1 μM,replicates: in singlicate; n = 1
T1 construct: gene CABC1

ADCK4 = details: concentration: 1 μM,replicates: in singlicate; n = 1
AKT1 = details: concentration: 1 μM,replicates: in singlicate; n = 1
AKT2 = details: concentration: 1 μM,replicates: in singlicate; n = 1
AKT3 = details: concentration: 1 μM,replicates: in singlicate; n = 1
ALK = details: concentration: 1 μM,replicates: in singlicate; n = 1
AMPK-alpha1 = test system: T2, AMPK-alpha1; details: concentration: 1 μM,replicates: in singlicate; n = 1
T2 construct: gene PRKAA1

AMPK-alpha2 = test system: T3, AMPK-alpha2; details: concentration: 1 μM,replicates: in singlicate; n = 1
T3 construct: gene PRKAA2

ANKK1 = details: concentration: 1 μM,replicates: in singlicate; n = 1
YANK2 = test system: T4, YANK2;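 note: kd values determined as follow-up on hits from a single-replicate KINOMEscan panel screen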
T4 construct: gene STK32B
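Throughout, for %Inh: KINOMEscan kinase panel screen.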

SMILES | %Inh (AAK1) | %Inh (ABL1-nonphosphorylated) | %Inh (ABL1-phosphorylated) | %Inh (ABL2) | %Inh (ACVR1B) | %Inh (ACVR1) | %Inh (ACVR2A) | %Inh (ACVR2B) | %Inh (ACVRL1) | %Inh (ADCK3) | %Inh (ADCK4) | %Inh (AKT1) | %Inh (AKT2) | %Inh (AKT3) | %Inh (ALK) | %Inh (AMPK-alpha1) | %Inh (AMPK-alpha2) | %Inh (ANKK1) | Kd (YANK2)
O=C1NC(=O)C(c2ccc(Cl)cc2)=C1Nc1ccc(O)c(Cl)c1 [SB-405367] | 27% | 34% | 15% | 0% | 0% | 0% | 24% | 0% | 75% | 10% | 5% | 4% | 0% | 6% | 6% | 3% | 4% | 6% | 
O=C1NC(=O)C(c2ccccc2)=C1Nc1ccc(Cl)c(C(=O)O)c1 [SB-390532] | 8% | 20% | 3% | 11% | 0% | 0% | 0% | 1% | 0% | 12% | 46% | 0% | 13% | 0% | 39% | 0% | 0% | 1% | 
O=C1NC(=O)C(c2ccccc2Cl)=C1Nc1cccc(C(=O)O)c1 [SB-390526] | 0% | 0% | 99.3% | 10% | 22% | 0% | 0% | 0% | 0% | 4% | 16% | 0% | 0% | 0% | 0% | 0% | 0% | 0% | 
O=C1NC(=O)C(c2ccc(Cl)cc2)=C1Nc1cccc(O)c1 [SB-333613] | 27% | 0% | 3% | 0% | 10% | 0% | 19% | 10% | 0% | 0% | 19% | 12% | 0% | 0% | 50% | 8% | 13% | 25% | 
O=C(O)c1ccc(-c2nc(-c3ccc(F)cc3)c(-c3ccncc3)[nH]2)cc1 [SB-202620] | 3% | 56% | 49% | 1% | 71% | 7% | 0% | 43% | 29% | 0% | 6% | 3% | 11% | 8% | 0% | 23% | 12% | 0% | 
Cc1cc(C)cc(Oc2nccc(-c3c(-c4ccc(F)cc4)ncn3C3CCNCC3)n2)c1.O=C(O)C(F)(F)F.O=C(O)C(F)(F)F.O=C(O)C(F)(F)F [SB-284851] | 13% | 45% | 35% | 1% | 0% | 0% | 0% | 14% | 0% | 20% | 0% | 15% | 0% | 0% | 19% | 0% | 5% | 0% | 160 nM
COc1cccc(C2=C(Nc3ccc(SC)cc3)C(=O)NC2=O)c1 [SB-331032] | 17% | 0% | 31% | 5% | 28% | 0% | 0% | 0% | 0% | 0% | 4% | 0% | 0% | 2% | 11% | 17% | 0% | 2% | 
Cc1ccc(C)c(Oc2nccc(-c3c(-c4ccc(F)cc4)ncn3C3CCNCC3)n2)c1.O=C(O)C(F)(F)F.O=C(O)C(F)(F)F.O=C(O)C(F)(F)F [SB-284852] | 0% | 53% | 14% | 13% | 20% | 0% | 100% | 14% | 25% | 17% | 19% | 22% | 0% | 7% | 0% | 19% | 3% | 0% | 
